Laboratory results reported in PubChem BioAssay AID686970 (National Center for Advancing Translational Sciences (NCATS), 2013).
In all, about 360,000 compounds went through this assay and about 6,000 (1.7%) were called active. Inconclusive results, whose numbers are uncertain, are shown with a selection of clear calls. Calls follow the shape of the dose curve; as a rule, active = well fitted cell-killing curve with a large enough effect; inconclusive = small, poorly fitted or top-dose-only effect, or effect the other way; inactive = flat fitted curve, though single readings scatter. Potencies of inconclusive entries are left out as doubtful fits.

experiment: qHTS for induction of synthetic lethality in tumor cells producing 2HG: qHTS for the HT-1080-NT fibrosarcoma cell line; conditions: HT-1080-NT fibrosarcoma viability, CellTiter-Glo ATP luminescence, 48 h; activity, negative = less viability: at 46.1 µM (top of the series) unless noted;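 also: NT is the 2HG producing partner of a matched IDH1 knockdown line; nearly all actives have a fitted effect of over 55% in size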;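 as to activity, negative = less viability: 0% = DMSO-treated cells and -100% = media-only wells without cells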
Procedure, shortened: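 A 48-hour cytotoxicity screen used HT-1080-NT cells plated 2 hours before compound delivery. ATP-based CellTiter-Glo luminescence measured viability, normalized to DMSO and no-cell controls.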
Potency is read from the fitted curve at half-maximal effect; tags tell the direction and shape of the fitted curve.

| Compound | activity, negative = less viability | Potency |
| --- | --- | --- |
| Cc1cc(C(=O)NCCCn2ccnc2)sc1-c1ccccc1 | inactive: -15.5% |  |
| CCOC(=O)C1=C[C@@H](C(C)(C)C)N(S(=O)(=O)c2ccc(OC)cc2)[C@H]1c1ccccc1 |  | inconclusive [cytotoxic, single point] |
| CC(C)C[C@H](NC(=O)OC(C)(C)C)C(=O)N/N=C/C1=Cc2ccccc2OC1C (stereo partly drawn) |  | inconclusive [cytotoxic, single point] |
| CN1C(=O)C(O)(C2COC(C)(C)CC2=O)c2cc(Br)ccc21 (stereo not drawn) |  | inconclusive [cytotoxic, single point] |
| CN(C)CCCNc1ncnc2c1c(-c1ccccc1)cn2-c1ccccc1 |  | inconclusive [cytotoxic, partial curve] |
| N/C(=N\OC(=O)C12CC3CC(CC(C3)C1)C2)c1ccccn1 |  | inconclusive [cytotoxic, single point] |
| C/C(Cn1nnc([N+](=O)[O-])n1)=N\NC(=O)c1ccc(O)cc1O |  | active: 23.1 µM |
| O=C1OC(c2ccccc2)(c2cc(Br)ccc2O)c2ccccc21 (stereo not drawn) |  | active: 16.4 µM |
| O=C(COc1cccc(NC(=O)c2cccs2)c1)c1ccc(F)cc1 | inactive: -2.16% |  |
| Cc1ccc(NS(=O)(=O)c2ccc(-c3cnc(C4CC4)o3)cc2)c(C)c1 |  | inconclusive [cytotoxic, full curve] |
| O=C(CSc1n[nH]c(-c2ccccn2)n1)Nc1ccc(F)cc1 |  | inconclusive [cytotoxic, single point] |
| CC[n+]1ccc(/C=C/c2ccc(N(C)C)cc2)c2ccccc21 |  | inconclusive [cytotoxic, full curve, poor fit] |
| COC(=O)c1ccccc1S(=O)c1snnc1C (stereo not drawn) | inactive: 8.49% |  |
| O=C(Nc1ccccc1N1CCOCC1)C1=NN(c2ccccc2)C(=O)CC1 |  | inconclusive [cytotoxic, single point] |
| COc1ccc2[nH]c3c(N4CCN(Cc5ccc6c(c5)OCO6)CC4)ncnc3c2c1 |  | active: 20.6 µM |
| Clc1ccc(-c2csc(Nc3cccnc3)n2)cc1 |  | inconclusive [rising, single point] |
| COc1ccc(NC(=O)N(C)[C@H]2C[C@H]3c4[nH]c5ccc(-c6cccc(C)c6)cc5c4CCN3C[C@H]2[C@H](C)O)cc1 |  | active: 23.1 µM |
| O=C(O)Cc1ccc(NS(=O)(=O)c2ccccc2Br)cc1 | inconclusive: 31.4% |  |
| COc1cc(C(=O)N/N=C/c2ccccn2)cc(OC)c1OC |  | inconclusive [cytotoxic, single point] |
| CCOC(=O)[C@]12CCCC=C1N(CCC1=CCCCC1)C(=O)[C@H](CC(=O)NCCC(C)C)C2 |  | inconclusive [cytotoxic, single point] |
| COc1ccc(N(C(=O)CCl)C(C(=O)NCCc2ccccc2)c2cccs2)cc1Cl (stereo not drawn) |  | active: 18.4 µM |
| COc1cccc(-c2ccc(NC(=O)C3CCCN(Cc4cnn(C(C)C)c4)C3)cc2)c1 (stereo not drawn) |  | active: 18.4 µM |
| Cc1ccc(-n2ncc3c(SCc4ccccn4)ncnc32)c(C)c1 | inconclusive: -30.5% [cytotoxic] |  |

| Compound | activity, negative = less viability | Potency |
| --- | --- | --- |
| O=C(NCCN1CCN(c2ccccc2)CC1)Nc1cccc(Br)c1 | inconclusive: -31% [cytotoxic] |  |
| CCc1cc(C(=O)c2ccccc2)c(N)s1 | inactive: -2.52% |  |
| COc1ccc(S(=O)(=O)NCC2CCCN(C(=O)CC3CCCC3)C2)cc1 (stereo not drawn) | inactive: -3.19% |  |
| CCOC(=O)c1cnc(SCC(=O)c2ccc3c(c2)OCCO3)nc1N | inactive: -0.379% |  |
| C[C@@H](c1ccccc1)N1C[C@H]2CCCN2c2cc(Br)ccc2S1(=O)=O |  | inconclusive [cytotoxic, full curve] |
| O=C(Nc1nc(-c2ccccc2)cs1)c1ccc2c(=O)n3c(nc2c1)CCCCC3 |  | inconclusive [cytotoxic, partial curve] |
| Fc1ccc(-c2cn(-c3ccccc3)c3[n+]2CCS3)cc1 |  | inconclusive [cytotoxic, single point] |
| O=C(Nc1ccc(Br)cc1)Nc1cnccn1 | inactive: -1.46% |  |
| CCc1nnc(NC(=O)/C=C/c2cccs2)s1 |  | inconclusive [rising, full curve] |
| Oc1ccc(F)c2cccnc12 |  | inconclusive [cytotoxic, partial curve] |
| CCN1CCN(c2cc(C)c3cc(NC(=S)N4CCCC(C)C4)ccc3n2)CC1 (stereo not drawn) |  | inconclusive [cytotoxic, single point] |
| Cc1ccc2ccc(C(Nc3ccccc3)c3ccc(F)cc3)c(O)c2n1 (stereo not drawn) |  | inconclusive [cytotoxic, single point] |
| CCOc1ccc2oc(C(=O)NNC(=O)c3ccccc3O)c(C)c2c1 |  | inconclusive [cytotoxic, full curve] |
| O=C(C=P(c1ccccc1)(c1ccccc1)c1ccccc1)c1ccccc1-c1ccccc1C(=O)C=P(c1ccccc1)(c1ccccc1)c1ccccc1 |  | active: 13 µM |
| CCCCNC(=O)C1(C)CCN1C(=O)c1csnn1 (stereo not drawn) |  | inconclusive [rising, single point] |
| C=CCn1cc(/C=C/c2cc[n+](C)cc2)c2ccccc21 |  | inconclusive [cytotoxic, partial curve] |
| O=C(Nn1c(C2CCCCC2)nc2ccccc2c1=O)c1ccc(Cl)c([N+](=O)[O-])c1 |  | inconclusive [cytotoxic, single point] |
| CC1(c2ccccc2)NC(=O)N(CC(=O)Nc2ccccc2C(=O)N2CCCCC2)C1=O (stereo not drawn) | inactive: 3.07% |  |
| COc1ccccc1N1CCN(CCS(=O)(=O)c2cc(Cl)ccc2Cl)CC1 |  | inconclusive [cytotoxic, partial curve] |
| Cc1noc(C)c1CSc1ncnc2sc3c(c12)CCCCC3 | inconclusive: 27.8% |  |
| O=C(Nc1ncccc1O)c1ccc(NS(=O)(=O)c2ccc3[nH]c(=O)[nH]c3c2)cc1 |  | inconclusive [cytotoxic, full curve] |
| CCCN(CC(=O)Nc1ccccc1OC)C(=O)CNC(=O)c1ccc(C)s1 | inactive: 14% |  |
| Cc1cc(C(F)(F)F)c(C#N)c(SCC(=O)Nc2nc3ccccc3s2)n1 |  | inconclusive [cytotoxic, single point] |

| Compound | activity, negative = less viability | Potency |
| --- | --- | --- |
| O=C(NC1CCCCC1)c1n[nH]c2c1CCCCC2 |  | inconclusive [cytotoxic, single point] |
| Cc1ccc(NCCC(=O)c2cccc([N+](=O)[O-])c2)cc1 |  | inconclusive [cytotoxic, single point] |
| CCCCCCCC/C=C\CCCCCCCC(=O)NCCc1ccc(O)c(O)c1 |  | active: 4.61 µM |
| CCCCNC(=O)C1CC(c2ccc(C(F)(F)F)cc2)=NO1 (stereo not drawn) | inactive: 7.11% |  |
| Cn1c(N)c(C(=O)COC(=O)c2ccccc2C(=O)c2ccc(Cl)c([N+](=O)[O-])c2)c(=O)n(C)c1=O |  | inconclusive [cytotoxic, single point] |
| CCOc1ccc(N(Cc2cc3ccc(C)cc3[nH]c2=O)S(=O)(=O)c2ccccc2)cc1 |  | inconclusive [cytotoxic, single point] |
| COc1cc(CN2C[C@@H](CO)O[C@@H](n3cnc4c(N5CCN(C)CC5)ncnc43)C2)cc(OC)c1OC |  | inconclusive [rising, partial curve] |
| COc1cccc(CNC(=O)C(=O)NCCC2CCCCN2S(=O)(=O)c2ccc(C)cc2)c1 (stereo not drawn) |  | inconclusive [cytotoxic, single point] |
| Cc1c(C(=O)Nc2ccc(F)cc2)cn2c(nc3ccccc32)c1C#N | inconclusive: -33.7% [cytotoxic] |  |
| C=CCn1nnnc1SCC(=O)Nc1cccc(OC)c1 |  | inconclusive [cytotoxic, single point] |
| COc1cc(C)c(C(C)C)cc1S(=O)(=O)NC1CC(C)(C)NC(C)(C)C1 | inconclusive: -31.2% [cytotoxic] |  |
| Cc1cccc(C)c1NC(=S)N1CCCCCC1 | inconclusive: 32.5% |  |
| O=C(NCC1CCCCC1)c1ccc2nc([C@@H]3O[C@H](CO)[C@@H](O)[C@H]3O)[nH]c2c1 |  | inconclusive [rising, full curve, poor fit] |
| Cc1c(C(=O)NCCS(=O)(=O)N2CCN(c3ccccc3F)CC2)cccc1[N+](=O)[O-] |  | inconclusive [cytotoxic, single point] |
| CCN(CC)C(=O)[C@H]1C[C@H](CC(=O)NCc2cccc(C(F)(F)F)c2)C(=O)N2CCc3c([nH]c4cc(-c5ccco5)ccc34)[C@]12C |  | inconclusive [cytotoxic, single point] |
| O=c1[nH]c(C2CCN(S(=O)(=O)c3ccccc3C(F)(F)F)CC2)nc2c1nnn2Cc1ccccc1 |  | inconclusive [cytotoxic, partial curve] |
| O=C(Nc1ccc2c(c1)OCO2)c1ccc(Br)o1 |  | inconclusive [cytotoxic, single point] |
| C[n+]1ccc(/C=N/Nc2nc(Cl)c(C#N)c(Cl)c2Cl)cc1 |  | inconclusive [cytotoxic, single point] |
| Cc1cc(C)n(CCC(=O)N2CCCC(N3CCN(c4cccc(Cl)c4)CC3)C2)n1 (stereo not drawn) | inactive: 0.729% |  |
| CNC(=O)c1c[nH]c2ccc(S(=O)(=O)Nc3cccc(SC)c3)cc2c1=O |  | inconclusive [cytotoxic, single point] |
| Cc1ccc(OCC(=O)NNC(=O)C2CSC3(C)CCC(=O)N23)cc1C (stereo not drawn) | inactive: 12.4% |  |
| O=C(Nc1ccccc1)N1CCC(c2nc(-c3ccc(S(=O)(=O)N4CCOCC4)cc3)no2)CC1 |  | active: 10 µM |
